# Measured values: PubChem BioAssay AID2451 (National Center for Advancing Translational Sciences (NCATS), 2010)
# Values joined by “and” are separate entries in the source; they are usually repeats but may differ in a detail not shown here. Equal values may be shown once. Among all 290,000 compounds or so, about 2,100 (0.72%) were called active. The inconclusive results got no clear call from the source; some entries with a clear call stand among them for comparison. The call rests on the fitted dose curve; in most records, active means well fitted inhibition curve with a large enough effect; inconclusive means small, poorly fitted or top-dose-only effect, or effect the other way; inactive means flat fitted curve, though single readings scatter. Potencies beside an inconclusive call are fits to weak or partial responses and may not hold up.
# Molecular target: Fructose-bisphosphate aldolase (Giardia intestinalis (strain ATCC 50803 / WB clone C6)) (UniProt A8B2U2)
# Experiment: qHTS Assay for Inhibitors of Fructose-1,6-bisphosphate Aldolase from Giardia Lamblia; further: nearly all actives have a fitted effect of over 55% in size
# Conditions: purified Giardia FBPA; activity, negative = inhibition: at 59.6 µM (top of the series) unless noted
# From the text: Assay Provider: Osnat Herzberg, University of Maryland
# The objective of this project is to obtain compounds that inhibit Giardia lamblia growth. G. lamblia is a human pathogen which afflicts impoverished nations; it is the most common cause of outbreaks of diarrhea in the United States. During the course of our study of potential drug targets in Giardia, we have identified the Class II (Zn2+ functions in electrophilic catalysis) fructose-1,6-bisphosphate aldolase (FBPA) as an excellent candidate for drug targeting. FBPA is a key glycolytic pathway enzyme, essential for G. lamblia survival. The human FBPA belongs to the Class I aldolases, which have a different substrate binding site structure and a radically different catalytic mechanism (employing a lysine-Schiff base intermediate). Therefore, affinity-based or mechanism-based inhibitors of the Giardia FBPA are expected not to interfere with the catalytic function of the human FBPA.
# A glyceraldehyde-3-phosphate dehydrogenase/triose phosphate isomerase/NAD/arsenate coupled assay was adapted to the 1536-well HTP format for use in the primary screen. This was done by coupling it to a diaphorase/resazurin/resorufin reaction that can be monitored by fluorescence (excitation, 544 nm; emission, 590 nm). Compounds identified in this screen will be further evaluated by coupling the glycerol-3-phosphate/triose phosphate isomerase/NADH assay to a phenazine methosulfate/tetranitroblue tetrazolium color reaction. False positives due to the dehydrogenases and diaphorase inhibition will be eliminated, and selectivity assay will triage inhibitors of mammalian triose phosphate isomerase and the Class I FBPA. G. lamblia FBPA inhibitors identified by the in vitro analyses will be examined for growth inhibition of Giardia trophozoites, and for cytotoxicity in human cells.
# Step,Parameter,Value,Description
# 1,Enzyme reagent,2 uL,40 nM FBPA
# 2,Compound,23 nL,3.68 nM-57.5 uM final concentration
# 3,Time,10 min,RT Incubation
# 4,Substrate/detection Reagent,2 uL,Substrate + enzyme coupling system + AmpLite Red kit
# 5,Time,20 min,RT Incubation
# 6,Detector,525 nm/598 nm (Fluorescence),ViewLux Fluorescence Read (Read 1)
# 1,Medium-binding black solid-bottom Kalypsys plates. FRD or Kalypsys dispenser, 2 uL of FBPA enzyme. Bottle kept at 4C.
# 2,Compound Library (10 mM ,1:5 dilution). Pin-transferred for a [final] range of 3.68 nM-57.5 uM.
# 4,FRD or Kalypsys dispenser, 2 uL of reaction mixture. Bottle kept at 4C and covered in foil to protect from light.
# 6,ViewLux Protocol 1194; Excitation filter wheel A (525/20 Pol; BODIPY TMR FP), Emission filter wheel B (598/25 S; BODIPY TMR FP S).
# Keywords: Fructose-bisphosphate aldolase, FBPA , Giardia lamblia , Giardia, HTS, Inhibitors
# On the % scale 0 is the no-effect control and ±100 the full control effect; potency means the concentration at half of the fitted maximal effect; tags describe the fitted curve by direction and shape.
# UniProt A8B2U2, sequence (A8B2U2 whole entry, looked up): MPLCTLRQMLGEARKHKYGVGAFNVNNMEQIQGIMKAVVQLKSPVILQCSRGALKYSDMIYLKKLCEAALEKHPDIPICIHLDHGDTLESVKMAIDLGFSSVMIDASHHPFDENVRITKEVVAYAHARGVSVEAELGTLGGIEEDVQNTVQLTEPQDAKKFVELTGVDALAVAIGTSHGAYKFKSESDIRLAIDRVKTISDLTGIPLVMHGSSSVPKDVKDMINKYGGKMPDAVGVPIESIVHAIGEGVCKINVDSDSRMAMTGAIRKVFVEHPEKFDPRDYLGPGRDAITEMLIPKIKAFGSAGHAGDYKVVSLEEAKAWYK
Structure (SMILES),Potency,"activity, negative = inhibition"
NCCc1cc(O)c(O)cc1O,active: 6.29 µM and active: 5.61 µM,–
Cc1nnc(NC(=O)c2ccc(S(=O)(=O)N(C)Cc3ccccc3)cc2)o1,"inconclusive: 5.61 µM [inhibitor, full curve]",–
O=c1nc2s/c(=C\c3ccc(-c4ccccc4[N+](=O)[O-])o3)c(=O)n2nc1-c1ccccc1,"inconclusive: 1.41 µM [inhibitor, full curve]",–
C=CCOc1c(Br)cc(CNc2ccc(NC(=O)C(C)C)c(OC)c2)cc1OC,"inconclusive: 7.92 µM [inhibitor, partial curve]",–
C/C(=N\NC(=O)c1ccccn1)c1ccc(C(=O)O)s1,"inconclusive: 17.7 µM [inhibitor, single point]",–
O=C(O)c1ccccc1CSC1=NCCS1,"inconclusive: 15.8 µM [inhibitor, single point]",–
CCN(CC)c1ccc(/C=N/Nc2ccccc2)c(O)c1,"inconclusive: 15.8 µM [inhibitor, partial curve]",–
COc1cccc(N=Nc2ccc(O)c3ncccc23)c1,"inconclusive: 39.8 µM [inhibitor, single point]",–
S=c1[nH]nc(NCCCN2CCOCC2)s1,"inconclusive: 17.7 µM [inhibitor, partial curve]",–
CCCOc1ccc(N2C(=O)CC(N3CCN(c4nc5ccccc5s4)CC3)C2=O)cc1 (configuration not stated),"inconclusive: 7.06 µM [activator, single point]",–
O=C(CSc1ncc(-c2ccc(F)cc2)[nH]1)N1CCCCC1,"inconclusive: 15.8 µM [inhibitor, single point]",–
COc1ccc2nc(/C(C#N)=C\c3ccc(C(=O)O)cc3)[nH]c2c1,"inconclusive: 19.9 µM [inhibitor, partial curve]",–
Fc1ccc(NC(=S)NCCc2ccccc2)c(F)c1F,–,inactive: -0.311%
CNC(=O)c1ccc(-c2cc(C(F)(F)F)nn2C)s1,"inconclusive: 22.3 µM [inhibitor, partial curve]",–
O=C(CCN1C(=O)c2cccc3cccc(c23)C1=O)NC1CCS(=O)(=O)C1 (configuration not stated),–,inactive: -0.574%
c1ccc2c(c1)CCN(c1nc3cc4c(cc3s1)OCCO4)C2,"inconclusive: 11.2 µM [inhibitor, partial curve]",–
CCCC(=O)N1CCN(c2ccc(NC(=O)c3cc4ccccc4o3)cc2Cl)CC1,active: 9.98 µM,–
COc1ccc(NC(=O)/C=C/c2ccc(Br)o2)cn1,"inconclusive: 15.8 µM [inhibitor, single point]",–
COc1ccc(NC(C)=O)cc1NC(=O)CSc1nnc(-c2ccncc2)n1C,–,inactive: 2.58%
CCc1n[nH]c(=S)n1/N=C/c1cc(OC)cc([N+](=O)[O-])c1O,"inconclusive: 15.8 µM [inhibitor, partial curve]",–
CCCCNCCCOc1ccc(C)cc1Br,"inconclusive: 6.29 µM [inhibitor, single point]",–
CCn1c(C)c(C(=O)c2ccccc2)c(C#N)c1C(=O)O,–,inactive: -7.42%
COc1ccc(C(=O)Cc2ccc3c(c2)OCO3)c(O)c1,–,inactive: -0.176%
CC1(OC(=O)C2CCCC2)C(=O)C=C2C=C(c3ccsc3)N(CCN3CCOCC3)C=C2C1=O (configuration not stated),"inconclusive: 354 nM [inhibitor, full curve] and inconclusive: 397 nM [inhibitor, full curve]",–

Structure (SMILES),Potency,"activity, negative = inhibition"
Cc1cc(Cl)ccc1NC(=O)NC1CCN(S(=O)(=O)c2ccc(F)cc2)CC1,–,inactive: 8.53%
CCCc1cc(=O)[nH]c(-n2[nH]c3c(c2=O)CCCC3)n1,"inconclusive: 3.97 µM [inhibitor, full curve]",–
CC(C)CNC(=O)CSc1n[nH]c(=O)n1CCc1ccccc1,–,inactive: 6.75%
O=C(Cc1ccc(-n2c(=O)c3sccc3n(CC(=O)Nc3ccccc3F)c2=O)cc1)NCc1ccco1,–,inactive: 1.04%
Cc1cc(OCCSc2nnc(-c3cccs3)n2C)ccc1Cl,"inconclusive: 19.9 µM [inhibitor, partial curve]",–
OC(CNC1CCCCCCC1)c1ccccc1 (configuration not stated),"inconclusive: 17.7 µM [inhibitor, partial curve]",–
CCCOc1ccc(/C=N/Nc2ccccc2[N+](=O)[O-])c(OCCC)c1,–,inactive: -5.3%
CC1(C)Cc2c(sc3nc(SCC(=O)O)nc(N)c23)CO1,–,inactive: 3.03%
CCN(C(=S)NC(=O)C1CC1)c1ccccc1,"inconclusive: 31.6 µM [inhibitor, single point]",–
O=C(c1ccc(CS(=O)(=O)Cc2ccccc2)cc1)N1CCCCC1,–,inactive: -0.235%
Cc1ccc2cc(C3CC(c4ccco4)=NN3S(=O)(=O)c3ccccc3)c(Cl)nc2c1 (configuration not stated),–,inactive: -6.54%
Cc1ccc(S(=O)(=O)N=Nc2c(O)[nH]c3ccccc23)cc1C,"inconclusive: 31.5 µM [activator, single point]",–
COc1cc(C(=O)NNC(=S)NC(=O)c2ccc3c(c2)OCO3)cc(OC)c1OC,"inconclusive: 31.5 µM [activator, single point]",–
CC(=O)c1cccc(NC(=O)CCn2c(=S)oc3ccccc32)c1,–,inactive: -4.34%
Brc1ccc2nc(-c3cccs3)c(NCC3CCCO3)n2c1 (configuration not stated),"inconclusive: 15.8 µM [inhibitor, partial curve]",–
Cc1cc(Br)ccc1OCCN1CC(C)OC(C)C1 (configuration not stated),"inconclusive: 15.8 µM [inhibitor, single point]",–
COCCNC(=S)NNc1cccc(C(=O)O)c1,active: 8.89 µM,–
COc1ccc(C(=O)NNC(=S)NC(=O)c2ccc(OC)cc2)cc1,"inconclusive: 39.8 µM [activator, single point]",–
C=CC1=C2C=C(C3CC3)N(C3CCCCC3)C=C2C(=O)C(C)(OC(=O)c2ccco2)C1=O (configuration not stated),"inconclusive: 0.397 µM [inhibitor, full curve]",–
CCc1cc(=O)[nH]c(SCc2cccnc2)n1,"inconclusive: 28.2 µM [inhibitor, single point]",–
c1ccc(-c2noc(C3CCCCC3)n2)nc1,–,inactive: 0.485%
COc1cc(/C=C2\CCCc3c2nc2ccccc2c3C(=O)O)cc(Br)c1O,"inconclusive: 28.2 µM [inhibitor, single point]",–
COc1ccc2nc(SCc3nc(N)nc(Nc4ccccc4)n3)[nH]c2c1,–,inactive: -15.2%
